Test results taken from the supplement of paper PMC3334620.
Over roughly 33,000 sequences, “E-score (-0.5 to 0.5)” has its median near -0.036; the highest 2% begin near 0.37. The list shows a part of the results.

target: T1, Yer064c (UniProt P40041); experiment: PBM E-score (8-mer binding enrichment) (E-score (-0.5 to 0.5)); higher = stronger / more preferred TF binding; most listed sequences are background and not binding sites; settings: protein concentration: 200 nM; construct: GST-full length
T1 sequence: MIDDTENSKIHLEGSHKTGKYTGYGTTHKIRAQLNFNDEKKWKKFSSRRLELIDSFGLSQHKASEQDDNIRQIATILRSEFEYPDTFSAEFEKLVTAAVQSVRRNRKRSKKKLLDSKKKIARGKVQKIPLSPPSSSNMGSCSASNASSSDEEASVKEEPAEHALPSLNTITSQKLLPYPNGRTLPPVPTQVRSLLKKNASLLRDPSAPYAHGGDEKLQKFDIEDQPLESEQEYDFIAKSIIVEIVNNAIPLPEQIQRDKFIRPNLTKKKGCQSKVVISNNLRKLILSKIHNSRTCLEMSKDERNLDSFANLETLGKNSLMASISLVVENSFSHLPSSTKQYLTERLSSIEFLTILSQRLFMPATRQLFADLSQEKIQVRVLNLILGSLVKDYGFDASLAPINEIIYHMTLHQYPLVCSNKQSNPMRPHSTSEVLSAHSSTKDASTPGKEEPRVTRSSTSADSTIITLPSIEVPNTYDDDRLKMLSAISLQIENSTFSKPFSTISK
Procedure: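 Universal 'all 10-mer' protein binding microarrays (Agilent AMADID 015681) probed with GST-tagged S. cerevisiae TFs (full-length or DBD) made by in vitro transcription/translation (PURExpress), about 100-200 nM. Bound TF was detected with fluorescent anti-GST. Each ungapped 8-mer (which stands for itself and its reverse complement) is scored by the PBM enrichment score (E-score), a modified Wilcoxon-Mann-Whitney statistic from -0.5 to +0.5, computed with the Universal PBM Analysis Suite. Scale: above 0.35 generally sequence-specific binding.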

| Sequence | PBM E-score |
| --- | --- |
| CGATAGCG | -0.225 |
| ACGCATGC | 0.0119 |
| GTCGCGGA | 0.0142 |
| CTATAATA | -0.109 |
| AGGGGTAT | -0.144 |
| CAAGCATA | -0.1 |
| GCATAGGC | -0.2 |
| CACATCCA | 0.0287 |
| AACATAGC | -0.0258 |
| ACGCCGTA | -0.0409 |
| CCAAATAC | -0.298 |
| ACAACACT | 0.19 |
| CTTGCAGA | -0.0612 |
| CTCGGAAA | 0.157 |
| GGATGTTA | -0.252 |
| GTAAAAGA | 0.0853 |
| ACCAAAGT | 0.0594 |
| ACAGCTGG | -0.173 |
| TTCCTCAA | -0.0537 |
| AACCAGTG | -0.152 |
| CGAAGCAG | -0.234 |
| GAAAGCGC | -0.158 |
| GAACCTTC | -0.0748 |
| CTAATTTA | 0.146 |
| CCTAGACG | -0.177 |

| Sequence | PBM E-score |
| --- | --- |
| CACTGCAG | -0.103 |
| ATACCACG | -0.0783 |
| AGATTCGC | -0.0217 |
| ATGGCGTG | 0.12 |
| CGTGTACA | -0.112 |
| CACTTTAA | 0.0926 |
| ACCTTTTA | -0.0549 |
| CCGCCGCG | -0.032 |
| ATCCTTTG | -0.1 |
| CACTTTTC | 0.0572 |
| GTATGCAC | -0.0694 |
| GATCGGCC | -0.2 |
| CCTGGATA | -0.134 |
| AAAATCCT | -0.0376 |
| ATGCCCGG | -0.0401 |
| ACCAGCTC | -0.107 |
| CGTCAACG | 0.0184 |
| TAAGTTAA | 0.208 |
| ACATCGCG | -0.244 |
| CCTGCCGC | -0.296 |
| TCGGTAAA | 0.0338 |
| GATTGTGC | 0.124 |
| AGATACTC | 0.156 |
| ACTGACGA | 0.204 |
| AGTCTCCG | 0.345 |

| Sequence | PBM E-score |
| --- | --- |
| GAAAAATA | 0.0112 |
| GCTGCCAC | -0.212 |
| AAGGACAT | -0.146 |
| GAGTACTC | 0.381 |
| GCAGTGTA | -0.0366 |
| TGGTGGAA | -0.132 |
| AGGAGCCA | 0.16 |
| AACACTCA | 0.102 |
| ACAGGCCG | -0.134 |
| ATTTCTTG | 0.117 |
| AAGTCCAT | 0.0523 |
| GACGCAAC | -0.248 |
| ATCCATCC | 0.0305 |
| ACAAGGTC | 0.00971 |
| AAGCGGAA | 0.0176 |
| CATCATGC | 0.0857 |
| GTAAGCCA | -0.132 |
| GCACTTCA | -0.231 |
| CGGATCTC | -0.298 |
| CATCACCG | 0.156 |
| GAGCCACC | 0.182 |
| ATGCAAAA | 0.0615 |
| TCTGAAAA | -0.1 |
| CATATAAA | -0.0573 |
| CTCTCGGA | 0.144 |

| Sequence | PBM E-score |
| --- | --- |
| CCTCGAAC | -0.109 |
| CCCATATA | 0.155 |
| GGGACACA | 0.0557 |
| AGTGAAAC | -0.00547 |
| CATTATGC | -0.0366 |
| CCCATCCG | -0.0756 |
| ATATTCTC | -0.00287 |
| CATATGAC | 0.289 |
| GAGTTACA | 0.178 |
| CCTGGCGC | -0.0612 |
| AGTTCACG | 0.0532 |
| CCGAGAAG | -0.101 |
| CCGACAAA | -0.0238 |
| AAGTTCAC | 0.0164 |
| CGCTTCGC | -0.196 |
| CAACTCCC | -0.15 |
| CGGTGAGC | -0.0299 |
| ATAGTGTC | -0.065 |
| AACCGAAC | -0.139 |
| CCGCTCGA | -0.132 |
| CGCAAGTA | -0.0674 |
| CCTGTCTA | -0.0113 |
| AATGGACA | -0.0288 |
| GCGGAGAA | -0.124 |
| TGTTATAA | 0.036 |

| Sequence | PBM E-score |
| --- | --- |
| CCTCGTGA | 0.0458 |
| ATTCACGG | 0.196 |
| GTTAAGAA | -0.0868 |
| AGCTAGTG | -0.256 |
| CCCTGTAC | -0.192 |
| CAACCCAC | -0.0875 |
| AACCCAAT | 0.137 |
| AACACTTC | -0.112 |
| ATCGGCAC | -0.0695 |
| CTATGGGC | -0.019 |
| ACCACCCT | -0.0168 |
| GCCCGGGA | -0.176 |
| CCCCGCGC | -0.432 |
| CGGAATCA | 0.392 |
| CACGTATG | 0.0639 |
| AAATGGAG | 0.0807 |
| GGCCTTCA | -0.0776 |
| AACCGACA | -0.0888 |
| CAATTTGG | -0.132 |
| ACACGGGA | -0.116 |
| CGTACCGC | -0.244 |
| CTCCCACA | -0.173 |
| GCTTGTCA | -0.0506 |
| AGCCTACC | -0.117 |
| AATATACG | -0.142 |

| Sequence | PBM E-score |
| --- | --- |
| CGTGTCGA | -0.134 |
| GCAATAAA | 0.17 |
| CATAACTC | 0.133 |
| CAGGCAAC | -0.126 |
| CCGCACTC | -0.148 |
| AAGTCTAC | 0.0107 |
| AACAAGGT | 0.0245 |
| ATAAATTC | -0.102 |
| TACTCCCA | 0.131 |
| GCCCCAGA | -0.151 |
| CCACACCC | -0.221 |
| CATGATCG | 0.0767 |
| CGCATATC | -0.0187 |
| CAGGCTAC | -0.149 |
| CTGGTCAC | 0.0888 |
| ACGTGGAC | -0.0541 |
| CAAAGCCC | -0.228 |
| AGGAGTTG | -0.0388 |
| ACCGGACA | -0.137 |
| CGGCTAGA | -0.186 |
| AACCTTCA | 0.093 |
| AAGCATAT | 0.0236 |
| AAGATACT | -0.0549 |
| AATGTGGC | -0.185 |
| GCGAGCGA | -0.108 |

| Sequence | PBM E-score |
| --- | --- |
| ACCCTCAG | -0.0413 |
| ATCGCATG | 0.0924 |
| ATAATGTG | 0.13 |
| ATCTGACG | -0.12 |
| CGTATAAG | -0.0799 |
| CGATTAAG | 0.153 |
| CACCCTAG | -0.0277 |
| AATAGATT | 0.0759 |
| ACGACAGC | -0.0135 |
| AGAGGTGA | 0.0588 |
| CTTAGTAC | 0.0958 |
| GCACCAAA | -0.105 |
| ATCCAGAC | -0.221 |
| GAAAACAC | 0.00149 |
| ATGGAACG | -0.255 |
| AGTTAATC | 0.36 |
| AGTCAACG | 0.443 |
| AGTTGCGG | 0.0254 |
| ACAGTTAA | 0.149 |
| AGCCGTGA | 0.102 |
| ACGCCCTA | -0.314 |
| GTTAATCA | 0.451 |
